Assay results from a collection of fitness landscapes (doi:10.1016/j.celrep.2020.107928).
Whole data set: some 81,000 sequences, median “one-hybrid fitness for binding NBS DNA” near -0.1, cut for the highest 2% near 0.36. This is one part of the list.

B1: Caulobacter ParB omega fusion; a variant is named by its letters at X, in order, B8GW30 (parent)
chain: MESVVVGEPGMSEGRRGLGRGLSALLGEVDAAPAQAPGEQLGGSREAPIEILQRNPDQPRRTFREEDLEDLSNSIREKGVLQPILVRPSPDTAGEYQIVAGERAWRAAQRAGLKTVPIMVRELDDLAVLEIGIIENVQRADLNVLEEALSYKVLMEKFERTQENIAQTIGKSXSHVANXMRLLXLPDEVQSYLVSGELTAXHARAIAAAADPVALAKQIIEGGLSVRETEALARKAPNLSAGKSKGGRPPRVKDTDTQALESDLSSVLGLDVSIDHRGSTGTLTITYATLEQLDDLCNRLTRGI

Variants of: B1
Experiment: one-hybrid fitness for binding NBS DNA (the Noc-binding site; scaled: cognate 1, non-cognate 0); higher = stronger binding
Settings: with NBS DNA site
Outline: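 Selection: bacterial one-hybrid in E. coli USO, HIS3 reporter with the site 19 bp from the promoter, 48 hours at 37°C on M9-minus-histidine plus 0.1 mM IPTG and 5 mM 3-AT. Libraries were Caulobacter ParB with four randomised specificity codons, sequenced on Illumina before and after selection. Fitness is the rescaled log change in variant-to-wild-type read ratio, anchored to the cognate and non-cognate sites.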

Row | Variant | one-hybrid fitness for binding NBS DNA
1 | VKRC | ≤ 0.2
2 | WVIR | ≤ 0.2
3 | QGAR | 0.255
4 | KIYS | ≤ 0.2
5 | RAAS | 0.368
6 | RKPE | ≤ 0.2
7 | SDQC | ≤ 0.2
8 | QDYV | ≤ 0.2
9 | AVAG | ≤ 0.2
10 | GEDF | ≤ 0.2
11 | RHVE | ≤ 0.2
12 | SKKM | ≤ 0.2
13 | CTIN | ≤ 0.2
14 | YTNH | ≤ 0.2
15 | RMPT | ≤ 0.2
16 | APIN | ≤ 0.2
17 | RKIL | ≤ 0.2
18 | WPTR | ≤ 0.2
19 | TLEQ | ≤ 0.2
20 | SAAY | ≤ 0.2
21 | NSGT | ≤ 0.2

Row | Variant | one-hybrid fitness for binding NBS DNA
22 | KCRS | 0.216
23 | HWPK | ≤ 0.2
24 | VNWT | ≤ 0.2
25 | AAYD | ≤ 0.2
26 | FRAG | ≤ 0.2
27 | KKSF | ≤ 0.2
28 | TRNQ | ≤ 0.2
29 | KQIS | ≤ 0.2
30 | GPWT | ≤ 0.2
31 | VERQ | ≤ 0.2
32 | QFLF | ≤ 0.2
33 | RSTA | ≤ 0.2
34 | RIWF | ≤ 0.2
35 | HSIY | ≤ 0.2
36 | RANR | 0.507
37 | TDCF | ≤ 0.2
38 | VPAP | ≤ 0.2
39 | TTPI | ≤ 0.2
40 | HAVY | ≤ 0.2
41 | ICHS | ≤ 0.2
42 | VVMV | ≤ 0.2

Row | Variant | one-hybrid fitness for binding NBS DNA
43 | YVCS | ≤ 0.2
44 | GNMW | ≤ 0.2
45 | RFMN | ≤ 0.2
46 | PVKV | ≤ 0.2
47 | TVER | ≤ 0.2
48 | SSKI | ≤ 0.2
49 | RQFP | ≤ 0.2
50 | TQFG | ≤ 0.2
51 | LRKT | 0.328
52 | YTSY | ≤ 0.2
53 | PSLF | ≤ 0.2
54 | TMQL | ≤ 0.2
55 | IVNY | ≤ 0.2
56 | LYET | ≤ 0.2
57 | ITGR | ≤ 0.2
58 | TMYY | ≤ 0.2
59 | RIQE | ≤ 0.2
60 | KTAR | 0.227
61 | EFLC | 0.352
62 | PFKY | ≤ 0.2
63 | YTCG | ≤ 0.2

Row | Variant | one-hybrid fitness for binding NBS DNA
64 | ALSQ | ≤ 0.2
65 | TFAM | ≤ 0.2
66 | FANF | ≤ 0.2
67 | RSPE | ≤ 0.2
68 | NVEC | ≤ 0.2
69 | AARY | ≤ 0.2
70 | MYTY | ≤ 0.2
71 | DVGG | ≤ 0.2
72 | GVAT | ≤ 0.2
73 | QSDV | ≤ 0.2
74 | VDYY | ≤ 0.2
75 | AALD | ≤ 0.2
76 | MYKR | 0.212
77 | PKRW | ≤ 0.2
78 | YMLR | ≤ 0.2
79 | GLHV | ≤ 0.2
80 | RIRW | ≤ 0.2
81 | LNQR | ≤ 0.2
82 | CYLT | ≤ 0.2
83 | PCGG | ≤ 0.2
84 | HPHH | ≤ 0.2
